# The list shows a part of the results. Single values are uncertain, as repeats are few or missing.
# Legend:
# Experiment in all cases: cell count relative to DMSO control; melanoma cells; higher = more viable cells
# Settings in all cases: library dose: standard library concentration; 72 h
# SkMel28 = tested on: SkMel28
# SkMel2 = tested on: SkMel2
# SkMel30 = tested on: SkMel30
# SkMel5 = tested on: SkMel5
# UACC257 = tested on: UACC257
# UACC62 = tested on: UACC62
# WM115 = tested on: WM115
# WM1716 = tested on: WM1716
# WM1745 = tested on: WM1745
# WM3526 = tested on: WM3526
# 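Also: cells treated in 1,536-well plates, then fixed and DAPI-stained, with nuclei counted from automated high-throughput microscope images.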
Compound,cell count (SkMel28) [%],cell count (SkMel2) [%],cell count (SkMel30) [%],cell count (SkMel5) [%],cell count (UACC257) [%],cell count (UACC62) [%],cell count (WM115) [%],cell count (WM1716) [%],cell count (WM1745) [%],cell count (WM3526) [%]
"Cn1nnc2c(C(N)=O)ncn2c1=O [temozolomide] + NC(=O)Nc1cc(-c2cccc(F)c2)sc1C(=O)N[C@H]1CCCNC1 [AZD7762] (first compound 10 µM, partner dose 0.1 µM)",41.7,113,65.7,88.3,106,72.5,71.5,54.6,62.1,63.3
"O=C(Nc1cc(C(F)(F)F)cc(C(F)(F)F)c1)c1cc(Cl)ccc1O + Nc1cccc2c1CN(C1CCC(=O)NC1=O)C2=O [lenalidomide] (first compound 0.08 µM, partner dose 5 µM)",101,114,118,121,103,86.5,132,119,126,118
"O=C(Nc1cc(C(F)(F)F)cc(C(F)(F)F)c1)c1cc(Cl)ccc1O + C[C@@H](Oc1cc(-c2cnn(C3CCNCC3)c2)cnc1N)c1c(Cl)ccc(F)c1Cl [Crizotinib] (first compound 0.08 µM, partner dose 1 µM)",70.9,118,89.6,77,72.2,82.1,80.4,91.3,93.4,85
"Cc1cc(N2CCOCC2)cc2[nH]c(-c3c(NC[C@@H](O)c4cccc(Cl)c4)cc[nH]c3=O)nc12 + COc1cc(N2CCC(N3CCN(C)CC3)CC2)ccc1Nc1ncc(Cl)c(Nc2ccccc2S(=O)(=O)C(C)C)n1 [NVP-TAE684] (first compound 1 µM, partner dose 0.4 µM)",67.7,70.4,104,54.6,97.2,70.8,60.9,80.8,52.1,65.3
"O=C(O)c1ccc2c(c1)nc(Nc1cccc(Cl)c1)c1ccncc12 + CC1(C)NC(=O)N(c2ccc([N+](=O)[O-])c(C(F)(F)F)c2)C1=O [nilutamide] (first compound 2 µM, partner dose 5 µM)",98.5,77,76.1,84.7,109,77.7,95.5,114,80.2,75.5
"O=C(Nc1cc(C(F)(F)F)cc(C(F)(F)F)c1)c1cc(Cl)ccc1O + CN(NC(=O)CC(=O)NN(C)C(=S)c1ccccc1)C(=S)c1ccccc1 [STA4783] (first compound 0.08 µM, partner dose 0.03 µM)",31.4,68.2,74.3,63.5,95.4,70.8,26.1,83.2,35.9,103
"O=C(Nc1cc(C(F)(F)F)cc(C(F)(F)F)c1)c1cc(Cl)ccc1O + CO[C@H]1C[C@@H]2CC[C@@H](C)[C@@](O)(O2)C(=O)C(=O)N2CCCC[C@H]2C(=O)O[C@H]([C@H](C)C[C@@H]2CC[C@@H](OCCO)[C@H](OC)C2)CC(=O)[C@H](C)/C=C(\C)[C@@H](O)[C@@H](OC)C(=O)[C@H](C)C[C@H](C)/C=C/C=C/C=C/1C [everolimus] (first compound 0.08 µM, partner dose 0.1 µM)",56.6,65.2,76.5,56.3,93.6,73.6,64.9,69.6,81.1,60.9
"Cn1nnc2c(C(N)=O)ncn2c1=O [temozolomide] + Cn1cncc1[C@@](N)(c1ccc(Cl)cc1)c1ccc2c(c1)c(-c1cccc(Cl)c1)cc(=O)n2C [tipifarnib] (first compound 10 µM, partner dose 0.05 µM)",68.8,79.8,81.4,71.4,103,74.8,83.4,78.5,91.4,74.5
"O=C(Nc1ccccc1)c1cc([N+](=O)[O-])ccc1Cl + CCCCCCCCCCCC1=C(O)C(=O)C=C(O)C1=O [Embelin] (first compound 10 µM, partner dose 6 µM)",57.1,82.2,97.9,77.8,93.3,74.2,75.1,100,63.3,99.8
"Cc1cc(N2CCOCC2)cc2[nH]c(-c3c(NC[C@@H](O)c4cccc(Cl)c4)cc[nH]c3=O)nc12 + O=C1NC(=O)/C(=C/c2ccc(-c3ccc(F)cc3O)o2)S1 [AS252424] (first compound 1 µM, partner dose 5 µM)",82.7,74.5,80.7,83,96,70.2,110,115,46.7,59.1
"O=C(O)c1ccc2c(c1)nc(Nc1cccc(Cl)c1)c1ccncc12 + COc1cc(Nc2ncc(F)c(Nc3ccc4c(n3)NC(=O)C(C)(C)O4)n2)cc(OC)c1OC [Tamatinib] (first compound 2 µM, partner dose 2 µM)",68,74.4,74.6,37.4,71.4,59.9,93.9,70.6,31,69.7
"O=C(O)[C@@H]1[O][Sb](=[O])([O][Sb]2(=[O])[O][C@H]([C@H](O)CO)[C@H](O)[C@H](C(=O)O)[O]2)[O][C@H]([C@H](O)CO)[C@@H]1O (some centres undefined) [stibogluconate] + Cc1cc([N+](=O)[O-])ccc1NS(=O)(=O)c1cc(Cl)ccc1Cl [FH535] (first compound 10 µM, partner dose 5 µM)",47.7,75.3,87,84.4,65.9,84.4,80.2,78.9,,65
"Cn1nnc2c(C(N)=O)ncn2c1=O [temozolomide] + c1cc(-c2cnn3cc(-c4ccc(OCCN5CCCCC5)cc4)cnc23)ccn1 [Dorsomorphin] (first compound 10 µM, partner dose 2 µM)",39.9,93.2,58,51.5,76.1,39.5,76.1,53.7,67.2,90.4
"O=C(O)c1ccc2c(c1)nc(Nc1cccc(Cl)c1)c1ccncc12 + COc1ccc(-c2ccc3c(N4CCOCC4)nc(N4C[C@@H](C)O[C@@H](C)C4)nc3n2)cc1CO [KU0063794] (first compound 2 µM, partner dose 0.1 µM)",60.6,71.2,77.2,62,98.2,80.6,69.9,88.2,,63.8
"O=C(Nc1cc(C(F)(F)F)cc(C(F)(F)F)c1)c1cc(Cl)ccc1O + COc1cc2ncnc(Nc3ccc(Oc4ccccc4)cc3)c2cc1OC [SrcI1] (first compound 0.08 µM, partner dose 10 µM)",99.1,76.1,97.7,65.4,84.1,69.5,80.4,90.6,,55.3
"O=C(Nc1cc(C(F)(F)F)cc(C(F)(F)F)c1)c1cc(Cl)ccc1O + N#Cc1c(O)c2c(-c3ccc(-c4ccccc4O)cc3)csc2[nH]c1=O [A769662] (first compound 0.08 µM, partner dose 10 µM)",87.1,117,109,91.3,89.2,67.3,96.6,105,,79.2
"O=C(Nc1cc(C(F)(F)F)cc(C(F)(F)F)c1)c1cc(Cl)ccc1O + CC(C)CCN1c2nc(Nc3cc(F)c(O)c(F)c3)ncc2N(C)C(=O)C1C [BID1870] (first compound 0.08 µM, partner dose 1 µM)",72.1,73.9,82.3,62.6,73.1,71.8,103,78.2,,70.3
"O=C(O)[C@@H]1[O][Sb](=[O])([O][Sb]2(=[O])[O][C@H]([C@H](O)CO)[C@H](O)[C@H](C(=O)O)[O]2)[O][C@H]([C@H](O)CO)[C@@H]1O (some centres undefined) [stibogluconate] + CCCCCCCCCCCC1=C(O)C(=O)C=C(O)C1=O [Embelin] (first compound 10 µM, partner dose 6 µM)",96.1,96,103,101,89.1,80.6,81.7,69.7,,85
"O=C(O)[C@@H]1[O][Sb](=[O])([O][Sb]2(=[O])[O][C@H]([C@H](O)CO)[C@H](O)[C@H](C(=O)O)[O]2)[O][C@H]([C@H](O)CO)[C@@H]1O (some centres undefined) [stibogluconate] + Cn1cc(/C=C2\C(=O)Nc3cccnc32)c2ccccc21 [GW441756] (first compound 10 µM, partner dose 2 µM)",79.2,92.3,94.4,73.1,85.8,89.2,83.7,97.7,,91.8
"O=C(O)[C@@H]1[O][Sb](=[O])([O][Sb]2(=[O])[O][C@H]([C@H](O)CO)[C@H](O)[C@H](C(=O)O)[O]2)[O][C@H]([C@H](O)CO)[C@@H]1O (some centres undefined) [stibogluconate] + O=S(=O)(c1ccccc1)N(CC(F)(F)F)c1ccc(C(O)(C(F)(F)F)C(F)(F)F)cc1 [T0901317] (first compound 10 µM, partner dose 7 µM)",111,105,100,95,82.9,88.4,87.3,100,,87.6
"O=C(O)[C@@H]1[O][Sb](=[O])([O][Sb]2(=[O])[O][C@H]([C@H](O)CO)[C@H](O)[C@H](C(=O)O)[O]2)[O][C@H]([C@H](O)CO)[C@@H]1O (some centres undefined) [stibogluconate] + COc1ccc(-c2ccc3c(N4CCOCC4)nc(N4C[C@@H](C)O[C@@H](C)C4)nc3n2)cc1CO [KU0063794] (first compound 10 µM, partner dose 0.1 µM)",65.7,81.6,87.7,61.4,105,93.4,68.7,96,,73.2
"O=C(O)[C@@H]1[O][Sb](=[O])([O][Sb]2(=[O])[O][C@H]([C@H](O)CO)[C@H](O)[C@H](C(=O)O)[O]2)[O][C@H]([C@H](O)CO)[C@@H]1O (some centres undefined) [stibogluconate] + N#Cc1c(O)c2c(-c3ccc(-c4ccccc4O)cc3)csc2[nH]c1=O [A769662] (first compound 10 µM, partner dose 10 µM)",141,111,95.8,94.7,114,102,82.6,108,,106
"O=C(O)c1ccc2c(c1)nc(Nc1cccc(Cl)c1)c1ccncc12 + Cc1cc([N+](=O)[O-])ccc1NS(=O)(=O)c1cc(Cl)ccc1Cl [FH535] (first compound 2 µM, partner dose 5 µM)",76.8,78.6,67.2,66.7,71,109,87.7,76.7,,71.3

# Source: the supplement of paper PMC4604168 (melanoma cell lines)
